In PubChem BioAssay AID1460 (National Center for Advancing Translational Sciences (NCATS), 2008):
Among all 270,000 compounds or so, about 5,800 (2.1%) were called active. Inconclusive means that the source gave no clear call. Such entries were picked first, then a sample of the others. Calls come from the whole dose curve; as a rule, active = well fitted inhibition curve with a large enough effect; inconclusive = small, poorly fitted or top-dose-only effect; inactive = flat fitted curve, though single readings scatter. Potencies beside an inconclusive call are fits to weak or partial responses and may not hold up.
% is set by controls: 0 for no effect and ±100 for the full control effect; potency is the fitted concentration of half-maximal effect; tags give direction and shape of the fitted curve.
Note: nearly all actives have a fitted effect of over 55% in size.

What follows are compounds tested against Microtubule-associated protein tau (Homo sapiens) (UniProt P10636) (assay: qHTS for Inhibitors of Tau Fibril Formation, Thioflavin T Binding). Settings: recombinant tau K18 P301L, heparin-induced fibrillization, ThT fluorescence; series mostly up to 57.4 µM; activity, negative = inhibition: at the top concentration.
UniProt P10636, sequence (P10636 whole entry, looked up): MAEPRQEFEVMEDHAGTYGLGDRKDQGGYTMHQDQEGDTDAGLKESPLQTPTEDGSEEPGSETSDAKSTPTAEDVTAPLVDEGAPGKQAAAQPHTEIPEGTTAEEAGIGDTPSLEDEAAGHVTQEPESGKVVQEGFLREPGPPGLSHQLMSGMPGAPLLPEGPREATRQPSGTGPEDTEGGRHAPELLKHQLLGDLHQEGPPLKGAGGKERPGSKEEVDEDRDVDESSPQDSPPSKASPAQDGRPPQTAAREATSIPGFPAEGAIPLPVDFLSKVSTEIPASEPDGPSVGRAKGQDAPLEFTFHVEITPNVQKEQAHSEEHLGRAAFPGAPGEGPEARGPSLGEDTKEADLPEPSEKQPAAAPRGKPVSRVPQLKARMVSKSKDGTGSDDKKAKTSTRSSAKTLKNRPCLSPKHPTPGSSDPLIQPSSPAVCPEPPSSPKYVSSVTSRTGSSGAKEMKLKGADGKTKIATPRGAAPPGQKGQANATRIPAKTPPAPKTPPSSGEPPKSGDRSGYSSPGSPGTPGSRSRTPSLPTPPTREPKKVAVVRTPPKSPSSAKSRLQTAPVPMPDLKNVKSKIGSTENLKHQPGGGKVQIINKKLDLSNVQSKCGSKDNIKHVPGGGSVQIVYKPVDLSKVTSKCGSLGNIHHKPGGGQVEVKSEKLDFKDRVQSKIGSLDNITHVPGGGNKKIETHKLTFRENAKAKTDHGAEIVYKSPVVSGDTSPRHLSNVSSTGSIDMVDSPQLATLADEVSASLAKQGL
Procedure, shortened: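 ThT emission at 510 nm, taken 1 hr after adding 30 uM dye, quantifies aggregates formed when 20 uM heparin acts on human tau K18 P301L for 6 hr at 37 C.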
In the case of `CCn1cnc2cc(NCc3ccc(OC)cc3)ccc21`, the Potency is reported as inconclusive: 17.8 µM [inhibitor, partial curve].
`O=C(Nc1ccc(Cl)c([N+](=O)[O-])c1)c1ccc2c(c1)OCCO2` was tested, and the Potency was inconclusive: 4.47 µM [inhibitor, partial curve].
`CCC(C)OC(=O)/C(C#N)=C\c1ccc(-c2ccccc2Cl)o1` (stereo not drawn) was tested, and the Potency was inconclusive: 39.8 µM [activator, single point].
For `COc1ccc2oc(C(=O)OCC(=O)c3ccc4c(c3)OCCO4)c(C)c2c1`, the Potency was inconclusive: 1.58 µM [inhibitor, full curve].
With `CC(=O)n1c(C=Nc2ccc(Cl)cc2)c(O)c2ccccc21` the Potency was inconclusive: 0.891 µM [inhibitor, full curve].
In the case of `Cc1cccc(N=C2NC(=O)/C(=C/c3cn(C)c4ccccc34)S2)c1`, the Potency is reported as active: 11.2 µM.
`C=CCn1c(-c2ccc(OC)cc2)nc2ccccc21` was tested, and the Potency was inconclusive: 12.6 µM [inhibitor, single point].
`COc1ccc2nc(NC(=O)CSc3nc(C)cc(=O)[nH]3)sc2c1` was tested, and the Potency was inconclusive: 12.6 µM [inhibitor, partial curve].
In the case of `Cc1ccc(CNC(=O)c2nn(C)c3c2CS(=O)(=O)c2ccccc2-3)cc1`, the “activity, negative = inhibition” value is reported as inactive: -4.29%.
`COc1cccc(C(c2c(C)[nH]n(-c3ccccc3)c2=O)c2c(C)[nH]n(-c3ccccc3)c2=O)c1OC` was tested, and the Potency was inconclusive: 1.78 µM [inhibitor, partial curve].
`CCOC(=O)c1ccc(N2C(=O)c3n[nH]c(-c4ccco4)c3C2c2ccc(O)c(OC)c2)cc1` (stereo not drawn) was tested, and the Potency was inconclusive: 4.47 µM [inhibitor, full curve].
For `O=C1C=CC2(OCCCO2)C(Br)=C1`, the activity, negative = inhibition was inactive: -11.6% [at 11.5 µM].
For `C(=N\Nc1nc(-c2ccccc2)cs1)/c1cccnc1`, the Potency was active: 15.8 µM.
For `O=C(NCc1ccc(Cl)cc1)c1ccc(Br)o1`, the Potency was inconclusive: 31.6 µM [inhibitor, single point].
With `CCCc1ccc(OCC(=O)NNC(=S)NC(=O)c2ccco2)cc1` the Potency was inconclusive: 10 µM [inhibitor, partial curve].
`CCOc1ccc(OCC)c(NC(=O)CCC(=O)N2CCOc3ccccc32)c1` was tested, and the “activity, negative = inhibition” value was inactive: 4.89%.
`COCCCNc1nc2c(S(=O)(=O)c3ccc(C)c(C)c3)nnn2c2ccc(Cl)cc12` was tested, and the “activity, negative = inhibition” value was inactive: -4.5%.
In the case of `N#Cc1c(N(CCO)CCO)nc(N)c2c(N)nc3c(c12)CC(=O)N3CC1CCCO1` (stereo not drawn), the Potency is reported as inconclusive: 17.8 µM [inhibitor, partial curve].
`Cc1ccccc1C(=O)Nc1ccc2c(C#N)c3nc4ccccc4nc3n2c1` was tested, and the Potency was active: 5.01 µM.
`CCOc1cc2[nH]c(=O)n(CCCC(=O)N3CCN(c4ccc(OC)cc4)CC3)c(=O)c2cc1OCC` was tested, and the Potency was inconclusive: 14.1 µM [inhibitor, partial curve].
In the case of `CCn1c2ccccc2c2cc(NC(=O)COc3cccc(C)c3)ccc21`, the Potency is reported as inconclusive: 2.51 µM [inhibitor, full curve].
With `CCOc1ccc(CCNC(=O)Cn2ncc3c(=O)oc4ccc(C)cc4c32)cc1` the Potency was inconclusive: 20 µM [inhibitor, partial curve, poor fit].
In the case of `Cc1cc(C(=O)NCc2cccs2)ccc1[N+](=O)[O-]`, the “activity, negative = inhibition” value is reported as inactive: -9.49%.
With `COc1cc(NC(=O)CN2C(=O)CN(C)C(=O)c3ccccc32)cc(OC)c1OC` the “activity, negative = inhibition” value was inactive: -0.293%.
For `Cc1cccc(OCC(=O)NCC(=O)N/N=C/c2cccs2)c1`, the Potency was inconclusive: 25.1 µM [inhibitor, partial curve].
For `COc1cccc2oc(SC)cc(=O)c12`, the Potency was inconclusive: 31.6 µM [inhibitor, partial curve].
For `O=C(NCc1ccc2c(c1)OCO2)O[C@@H]1C(=O)c2cc(Br)ccc2O[C@H]1c1ccc2c(c1)OCO2`, the “activity, negative = inhibition” value was inactive: 1.26%.
For `CCOc1ccc(-n2c(N)c(-c3nc4ccccc4n3C)c3nc4ccccc4nc32)cc1`, the Potency was inconclusive: 3.16 µM [inhibitor, full curve].
In the case of `O=c1[nH][nH]c(-c2ccccc2O)c1C(C[N+](=O)[O-])c1ccc(Br)cc1` (stereo not drawn), the Potency is reported as inconclusive: 17.8 µM [inhibitor, partial curve].
In the case of `Cc1cccc(NC(=O)Cn2c(=O)nc(-c3ccccc3)c3ccccc32)c1C`, the “activity, negative = inhibition” value is reported as inactive: 4.4%.
For `COC(=O)CSc1nc2cc3c(cc2cc1C#N)OCO3`, the Potency was inconclusive: 3.16 µM [inhibitor, full curve].
`CCOC(=O)c1c(C)oc2ccc(N(C(=O)c3ccncc3)S(=O)(=O)c3ccc(Br)cc3)cc12` was tested, and the Potency was inconclusive: 22.4 µM [inhibitor, partial curve, poor fit].
With `Cc1sc(NC(=O)Cn2[nH]c(=O)c3ccccc3c2=O)nc1-c1ccccc1` the Potency was inconclusive: 22.4 µM [inhibitor, partial curve, poor fit].
In the case of `CCOc1ccc(N(CC(=O)NCc2ccc(C)cc2)S(=O)(=O)c2c(C)noc2C)cc1`, the “activity, negative = inhibition” value is reported as inactive: -0.179%.
For `CCCn1cc(SCC(=O)NCc2ccc3c(c2)OCO3)c2ccccc21`, the Potency was inconclusive: 15.8 µM [inhibitor, partial curve].
For `Cc1ccc(S(=O)(=O)N2CCC(=O)N(C(COCc3cccc(C(F)(F)F)c3)C(C)C)CC2)cc1` (stereo not drawn), the Potency was inconclusive: 28.2 µM [inhibitor, partial curve, poor fit].
In the case of `COC(=O)C1(C)NC(=O)c2ccccc2N1` (stereo not drawn), the “activity, negative = inhibition” value is reported as inactive: -10.6%.
In the case of `O=C(/C=C/c1ccco1)c1ccc(NC(=O)C23CC4CC(CC(C4)C2)C3)cc1`, the Potency is reported as inconclusive: 11.2 µM [inhibitor, partial curve].
In the case of `O=C(NCCN1CCN(c2cccc(Cl)c2)CC1)C1COc2ccccc2C1` (stereo not drawn), the Potency is reported as inconclusive: 3.16 µM [inhibitor, partial curve, poor fit].
`CSc1ccc(CCNC(=O)CSc2ccsc2[N+](=O)[O-])cc1` was tested, and the Potency was inconclusive: 7.08 µM [inhibitor, partial curve].
With `Oc1cccc2ccc(/C=C/c3c(F)cccc3Cl)nc12` the Potency was inconclusive: 8.91 µM [inhibitor, partial curve].
In the case of `Clc1ccc(-c2nnc(-c3ccco3)o2)cc1`, the Potency is reported as inconclusive: 31.6 µM [inhibitor, single point].
For `CCOC(=O)c1sc(NC(=O)CSc2n[nH]c(-c3ccccc3)n2)c(C#N)c1C`, the Potency was inconclusive: 28.2 µM [inhibitor, partial curve].
For `COc1ccc(-c2csc(/C(C#N)=C\c3cccc([N+](=O)[O-])c3)n2)cc1`, the Potency was inconclusive: 2.82 µM [inhibitor, full curve].
In the case of `CC1CCN(CC(=O)Nc2ccc(N3CCCCCC3)cc2)CC1`, the Potency is reported as inconclusive: 12.6 µM [inhibitor, partial curve].
In the case of `O=C(Nc1ccccc1)Nc1cc(Cl)cc(Cl)c1`, the Potency is reported as inconclusive: 31.6 µM [activator, single point].
In the case of `O=C(O)COc1ccccc1/C=N/NC(=O)Cc1csc(Nc2cccc(C(F)(F)F)c2)n1`, the Potency is reported as inconclusive: 10 µM [inhibitor, partial curve].
In the case of `O=C(NCCN1C(=O)CCC1=O)c1ccncc1`, the “activity, negative = inhibition” value is reported as inactive: -10.2%.
`CCOc1ccc(CCNC(=O)c2cn(CC)c3ccc(S(=O)(=O)N4CCCCCC4)cc3c2=O)cc1OCC` was tested, and the “activity, negative = inhibition” value was inactive: -17.6%.
In the case of `CC(=O)N1CCCc2cc(S(=O)(=O)N(C)CC(=O)Nc3cccc(C)c3C)ccc21`, the “activity, negative = inhibition” value is reported as inactive: 2.44%.
In the case of `O=C(NCCc1cn2ccsc2n1)c1cccs1`, the “activity, negative = inhibition” value is reported as inactive: 7.15%.
`CC(C)C(=O)N1CCN(c2ccc(NC(=O)c3ccc4c(c3)OCCO4)cc2Cl)CC1` was tested, and the Potency was inconclusive: 6.31 µM [inhibitor, partial curve].
With `Oc1ccc(Nc2nc3ccccc3nc2Nc2ccc(O)cc2)cc1` the Potency was active: 15.8 µM.
With `CC(C)=C1C(=O)NN(c2cccc(Cl)c2)C1=O` the Potency was inconclusive: 15.8 µM [inhibitor, partial curve].
In the case of `CC(C)Cc1nc2oc3c(Cl)ncnc3c2c2c1CCCC2`, the “activity, negative = inhibition” value is reported as inactive: -14.9%.
`O=C(Nc1nc(=S)ss1)c1ccc(Cl)cc1Cl` was tested, and the Potency was active: 31.6 µM.
With `Cc1ccc(NC(=O)CSC2=Nc3ccccc3C3CC=NN23)c(C)c1` (stereo not drawn) the Potency was inconclusive: 14.1 µM [inhibitor, partial curve, poor fit].
For `COc1ccc(OC)c2c(C)cc(N3CCN(C(=O)c4ccc(Cl)cc4)CC3)nc12`, the Potency was inconclusive: 15.8 µM [inhibitor, partial curve].
For `CCOC(=O)c1cc(-c2cccc([N+](=O)[O-])c2)nc2[nH]c(=O)[nH]c(=O)c12`, the Potency was inconclusive: 35.5 µM [inhibitor, single point].
With `Oc1c(N=Nc2ccccn2)ccc2ccccc12` the Potency was active: 4.47 µM.
`O=C1[C@H]2[C@H]3[C@H](O)[C@H](O)C/C(=N/OC[C@@H](O)COCc4ccco4)[C@H]3CC[C@@H]2C(=O)N1Cc1ccccc1` was tested, and the activity, negative = inhibition was inactive: -3.55% [at 11.5 µM].
`O=c1nc2n(c3c1oc1ccccc13)Cc1ccccc1-2` was tested, and the Potency was inconclusive: 6.31 µM [inhibitor, partial curve].
`COc1ccc(S(=O)(=O)Nc2ccccc2OC)cc1NC(=O)c1cc2ccccc2oc1=O` was tested, and the “activity, negative = inhibition” value was inactive: -6.81%.
For `O=c1[nH]c2c(s1)C(c1ccc(O)cc1)C1C3CCC(C3)C1S2` (stereo not drawn), the Potency was inconclusive: 20 µM [inhibitor, partial curve].
With `CCCC/C=C/C(NC(=O)OCc1ccccc1Cl)c1ccccc1` (stereo not drawn) the “activity, negative = inhibition” value was inactive: 1.23%.
For `O=C(O)c1[nH]c2ccc(Cl)cc2c1CC(=O)N1CCN(c2ccccc2)CC1`, the “activity, negative = inhibition” value was inactive: -8.21%.
`COc1ccc(Cl)cc1N1C(=O)/C(=C\c2sccc2C)N=C1SCC(=O)NC1CC1` was tested, and the Potency was inconclusive: 20 µM [inhibitor, partial curve].
For `CCC1(C)Cc2c(sc3nc(NN)n(C)c(=O)c23)CO1` (stereo not drawn), the Potency was inconclusive: 17.8 µM [inhibitor, single point].
